Test results reported in US20220119501A1 (INVISISHIELD TECHNOLOGIES, published 2022).

B1: anti-S1 (SARS-CoV-2) scFv clone #04 (scFv)
scFv: QSVLTQPPSASGTPGQRVTISCSGGSSNIGSNPVNWYQQLPGTAPKLLIYSNNQRPSGVPDRFSGSKSGTSASLAISGLQSEDEADYYCAAWDDSLSGSVLFGGGTKLTVLGSRGGGGSGGGGSGGGGSLEMA[about 100 residues not spelt out]GYSDRWGQGTLVTVSSTSGQAGQ
notes: also called phage clone #04
B2: anti-S1 (SARS-CoV-2) scFv clone #85 (scFv)
scFv: QAVLTQPPSASGTPGQMVTISCSGSNSNIGSNPVNWYQQLPGTAPKLLIYGNDERPSGVPDRFSGSKSGTSASLAISGLQSEDEADYYCAAWDDSLDGHVIFGGGTKLTVLGSRGGGGSGGGGSGGGGSLEMA[about 100 residues not spelt out]GYSDYWGQGTLVTVSSTSGQAGQ
notes: also called phage clone #85

Molecular target: S1 subunit polypeptide of SARS-CoV-2 spike protein (isolate 2019-nCoV, WIV4) (SARS-CoV-2 (isolate 2019-nCoV, WIV4))
Assay: phage ELISA on SARS-CoV-2 spike S1 (FIG. 1)

| Binder | binding result |
| --- | --- |
| B1 | binds |
| B2 | binds |
